Test results from PubChem BioAssay AID1030 (National Center for Advancing Translational Sciences (NCATS), 2008).
“And” between values parts separate entries of the source, which are not always exact repeats. Identical values can stand only once. In all, about 220,000 compounds went through this assay and about 16,000 (7.3%) were called active. Inconclusive means that the source gave no clear call. Such entries were picked first, then a sample of the others. Calls come from the whole dose curve; as a rule, active = well fitted inhibition curve with a large enough effect (not every such curve was filed as active); inconclusive = small, poorly fitted or top-dose-only effect, or another doubt; inactive = no such curve, though single readings can be large or run the other way. A potency beside an inconclusive call is a rough fit, not a confirmed value. Where a structure was tested more than once in an assay, its records may differ in their call.

These molecules were tested against Aldehyde dehydrogenase 1A1 (Homo sapiens) (UniProt P00352) (assay: qHTS Assay for Inhibitors of Aldehyde Dehydrogenase 1 (ALDH1A1)). Details: Purified ALDH1A1, NADH fluorescence, propionaldehyde substrate; series mostly up to 75.3 µM.
Potency is the fitted concentration of half-maximal effect; tags give direction and shape of the fitted curve.

Chain of UniProt P00352 (P00352 whole entry, looked up): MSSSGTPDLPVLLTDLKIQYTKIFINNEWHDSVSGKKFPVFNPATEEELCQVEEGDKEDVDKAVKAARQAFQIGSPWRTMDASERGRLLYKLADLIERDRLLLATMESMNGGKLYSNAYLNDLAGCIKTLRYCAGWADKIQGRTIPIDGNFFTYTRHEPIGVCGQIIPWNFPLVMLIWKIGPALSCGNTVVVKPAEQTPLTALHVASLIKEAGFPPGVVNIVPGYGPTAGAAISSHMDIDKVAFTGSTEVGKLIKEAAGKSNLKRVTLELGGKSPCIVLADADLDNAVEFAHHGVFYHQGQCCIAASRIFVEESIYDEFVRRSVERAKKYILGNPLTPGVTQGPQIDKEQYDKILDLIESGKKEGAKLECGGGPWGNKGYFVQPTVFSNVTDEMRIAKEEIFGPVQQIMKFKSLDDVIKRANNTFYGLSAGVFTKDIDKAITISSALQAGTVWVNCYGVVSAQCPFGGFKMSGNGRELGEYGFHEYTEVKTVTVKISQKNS

Question: With CCOC(=O)C1=C(C)OC(N)=C(C#N)C12C(=O)Nc1ccc(C)cc12 (stereo not given) as the molecule, how does the Potency read?
Answer: The Potency was “inactive”.

Question: With c1ccc(N2CCCC3(CCNCC3)C2)cc1 as the molecule, how does the Potency read?
Answer: Its Potency is inconclusive: 39.8 µM [inhibitor, single point].

Question: For CCCCn1cnc2cc(NCc3cccc(OC)c3O)ccc21, which Potency is on record?
Answer: The Potency was inconclusive: 25.1 µM [inhibitor, partial curve].

Question: Cc1ccc2c(c1)CC1(CN2C)C(=O)NC(=O)N(C(C)C)C1=O (stereo not given) was tested. Which Potency did it give?
Answer: The Potency was inconclusive: 39.8 µM [inhibitor, single point].

Question: For Cc1onc(-c2ccccc2)c1C(=O)Nc1ccc(S(=O)(=O)N2CCCC2)cc1, which Potency is on record?
Answer: Its Potency is inconclusive: 29.9 µM [inhibitor, single point].

Question: Which Potency does the source give for COc1cc2[nH]c(=O)[nH]c(=O)c2cc1OC here?
Answer: Its Potency is inconclusive: 31.6 µM [inhibitor, partial curve].

Question: With CCC(CO)(C(=O)OC1C[N+]2(C)CCC1CC2)c1ccccc1 (stereo not given) as the molecule, how does the Potency read?
Answer: The Potency was “inactive”.

Question: With C#CCNc1ccncc1S(=O)(=O)NC(=O)NC(C)C as the molecule, how does the Potency read?
Answer: Its Potency is inconclusive: 39.8 µM [inhibitor, single point].

Question: How did the Potency turn out when COc1cc(NC(=O)c2ccco2)ccc1NC(=O)c1ccccc1Cl was run?
Answer: Its Potency is inconclusive: 44.7 µM [inhibitor, single point].

Question: CN1CCC(N(C)Cc2cccnc2)CC1 was tested. Which Potency did it give?
Answer: The Potency was inconclusive: 10 µM [inhibitor, partial curve].

Question: How did the Potency turn out when CN1CCc2c(C#N)c(Cl)nc(Cl)c2C1 was run?
Answer: The Potency was inconclusive: 31.6 µM [inhibitor, partial curve].

Question: Cc1ccc(N2C(=O)NC(=O)/C(=C\c3cccn3C(C)(C)C)C2=O)cc1 was tested. Which Potency did it give?
Answer: The Potency was active: 0.562 µM.

Question: Which Potency does the source give for COC(=O)[C@@H]1[C@@H](C(=O)OC)C2(c3ccccc3-c3ccccc32)N(c2ccc(Cl)cc2)N1C#N here?
Answer: Its Potency is inconclusive: 39.8 µM [inhibitor, single point].

Question: With O=C(c1ccc2c(c1)ncn2-c1ccc(F)cc1F)N1CCC2(CC1)OCCO2 as the molecule, how does the Potency read?
Answer: Its Potency is inconclusive: 25.1 µM [inhibitor, single point].

Question: How did the Potency turn out when COCCOC(=O)c1c(N)n(Cc2ccccc2)c2nc3ccccc3nc12 was run?
Answer: Its Potency is inconclusive: 31.6 µM [inhibitor, partial curve].

Question: Which Potency does the source give for CCCCC/C=C\C/C=C\C/C=C\C/C=C\CCCC(=O)OC(CO)CO here?
Answer: The Potency was “inactive and active: 22.4 µM”.

Question: Which Potency does the source give for CCN(CC)C(=O)N[C@@H]1C[C@H]2c3cccc4[nH]cc(c34)C[C@@H]2N(C)C1 here?
Answer: Its Potency is “inactive”.

Question: Which Potency does the source give for Cc1ccc(-n2sc3ccccc3c2=O)cc1 here?
Answer: Its Potency is active: 10 µM.

Question: With Fc1ccc(C2=CCN(C(c3ccc(Cl)cc3)c3nnnn3Cc3ccccc3)CC2)cc1 (stereo not given) as the molecule, how does the Potency read?
Answer: Its Potency is inconclusive: 28.2 µM [inhibitor, single point].

Question: How did the Potency turn out when CCC(=NCCCN1CCOCC1)c1c(O)n(Cc2ccccc2)c(=O)[nH]c1=O was run?
Answer: Its Potency is inconclusive: 39.8 µM [inhibitor, single point].

Question: Cc1ccc2c(c1)N(CCC(=O)N1CCC3(CC1)OCCO3)C(=O)CO2 was tested. Which Potency did it give?
Answer: The Potency was active: 10 µM.

Question: With Cc1ccc(O)c(C(=O)c2cc(C(=O)NCc3ccccc3)c(=O)n(Cc3ccccc3)c2)c1 as the molecule, how does the Potency read?
Answer: Its Potency is inconclusive: 6.31 µM [inhibitor, full curve].

Question: Which Potency does the source give for O=C(O)Cc1cnc[nH]1 here?
Answer: The Potency was “inactive”.

Question: Which Potency does the source give for ClCCCl here?
Answer: Its Potency is inconclusive: 44.7 µM [inhibitor, single point].

Question: Oc1ccccc1-c1ccccc1 was tested. Which Potency did it give?
Answer: The Potency was active: 17.8 µM.

Question: O=CN1CC2CC(C1)c1cccc(=O)n1C2 (stereo not given) was tested. Which Potency did it give?
Answer: Its Potency is “inactive”.

Question: For COCc1cc(C)c(C#N)c(=S)[nH]1, which Potency is on record?
Answer: The Potency was inconclusive: 35.5 µM [inhibitor, single point].

Question: With O=P(C(c1c[nH]c2ccccc12)N1CCOCC1)(N1CCOCC1)N1CCOCC1 (stereo not given) as the molecule, how does the Potency read?
Answer: The Potency was inconclusive: 39.8 µM [inhibitor, single point].

Question: With CNC(=O)Oc1ccccc1OC(C)C as the molecule, how does the Potency read?
Answer: Its Potency is inconclusive: 31.6 µM [inhibitor, single point].

Question: With C=CCn1c(=O)/c(=C\c2ccccn2)s/c1=C(/C#N)C(=O)NCC1CCCO1 (stereo not given) as the molecule, how does the Potency read?
Answer: Its Potency is inconclusive: 7.08 µM [inhibitor, partial curve].

Question: CCOC(=O)N1CCN(Cc2ccccc2F)CC1 was tested. Which Potency did it give?
Answer: Its Potency is active: 14.1 µM.

Question: Which Potency does the source give for CCOP(=O)(OCC)c1nc(-c2ccccc2)oc1NCc1ccccc1 here?
Answer: Its Potency is inconclusive: 25.1 µM [inhibitor, partial curve].

Question: For Cc1ccc(C)c(NC2=NCCCS2)c1, which Potency is on record?
Answer: Its Potency is inconclusive: 8.91 µM [inhibitor, single point].

Question: For N=C(N)c1ccc(-c2ccc(-c3ccc(C(=N)N)cc3)o2)cc1, which Potency is on record?
Answer: Its Potency is inconclusive: 4.47 µM [inhibitor, partial curve].

Question: COc1cccc(N2C(=O)NC(=O)/C(=C\c3ccc([N+](=O)[O-])s3)C2=O)c1 was tested. Which Potency did it give?
Answer: The Potency was inconclusive: 28.2 µM [inhibitor, single point].

Question: For N#CSCC(=O)N1c2ccccc2CCc2ccccc21, which Potency is on record?
Answer: The Potency was active: 0.794 µM.

Question: With Cc1nc2c(C(=O)N3CCC4(CC3)OCCO4)cnn2c(C)c1Cc1cccc(Cl)c1 as the molecule, how does the Potency read?
Answer: The Potency was inconclusive: 28.2 µM [inhibitor, single point].

Question: How did the Potency turn out when CCOP(=S)(OCC)Oc1ccc([N+](=O)[O-])cc1 was run?
Answer: The Potency was active: 22.4 µM and active: 15.8 µM.

Question: With CCC(C)N1C(=O)/C(=C\c2ccc(N3CCCCCC3)cc2)C(=O)NC1=S (stereo not given) as the molecule, how does the Potency read?
Answer: The Potency was active: 0.126 µM.

Question: With O=c1[nH]c(=S)[nH]c(O)c1N=Nc1ccc(-c2ccccc2)cc1[N+](=O)[O-] as the molecule, how does the Potency read?
Answer: The Potency was inconclusive: 10 µM [inhibitor, partial curve].

Question: For Nc1ccc(Cl)cc1C(=O)c1ccccc1, which Potency is on record?
Answer: Its Potency is “inactive”.

Question: For C[n+]1c(-c2ccccc2)cc(CCCCc2cc(-c3ccccc3)[n+](C)c(-c3ccccc3)c2)cc1-c1ccccc1, which Potency is on record?
Answer: Its Potency is inconclusive: 39.8 µM [inhibitor, single point].

Question: With C=CCN1C(=O)/C(=C\c2ccc(N3CCOCC3)o2)C(=O)NC1=S as the molecule, how does the Potency read?
Answer: Its Potency is active: 17.8 µM.

Question: For CCOC(=O)c1c(N)n(Cc2ccccc2)c2nc3ccccc3nc12, which Potency is on record?
Answer: The Potency was inconclusive: 14.1 µM [inhibitor, partial curve].

Question: CC1CCN(C(=O)CCl)CC1 was tested. Which Potency did it give?
Answer: Its Potency is active: 0.355 µM.

Question: CCCCNC(=O)/C(C#N)=c1\s/c(=C\c2ccccc2OC(F)F)c(=O)n1CCCOC was tested. Which Potency did it give?
Answer: The Potency was inconclusive: 18.9 µM [inhibitor, partial curve].

Question: Which Potency does the source give for C[C@](N)(CCP(=O)(O)O)C(=O)O here?
Answer: The Potency was inconclusive: 39.8 µM [inhibitor, single point].

Question: For CN1CCN(c2ccc(N)cc2)CC1, which Potency is on record?
Answer: Its Potency is active: 31.6 µM.

Question: How did the Potency turn out when CN1CCC2=C[C@H](O)[C@@H]3OC(=O)c4cc5c(cc4[C@H]3[C@H]21)OCO5 was run?
Answer: The Potency was inconclusive: 15.8 µM [inhibitor, single point].

Question: How did the Potency turn out when CN1C(=O)/C(=C\N2CCc3ccccc32)C(=O)NC1=S was run?
Answer: The Potency was inconclusive: 25.1 µM [inhibitor, single point].

Question: CCN(CC)CCCN=C(C)c1c(O)n(C2CCCCC2)c(=O)[nH]c1=O was tested. Which Potency did it give?
Answer: Its Potency is inconclusive: 39.8 µM [inhibitor, single point].

Question: CC(=O)N1CCN(c2ccc(N=Cc3c(O)n(-c4ccc(Cl)cc4)c(=O)[nH]c3=O)cc2)CC1 was tested. Which Potency did it give?
Answer: Its Potency is “inactive”.

Question: COc1ccc2nc(NC(=O)CCNS(=O)(=O)c3ccc4c(c3)oc(=O)n4C)sc2c1 was tested. Which Potency did it give?
Answer: The Potency was “inactive”.

Question: With CN1[C@@H]2CC[C@H]1CC(O)C2 (stereo not given in full) as the molecule, how does the Potency read?
Answer: The Potency was “inactive”.

Question: How did the Potency turn out when COc1cccc(OCC(=O)N2CCN(C)CC2)c1 was run?
Answer: The Potency was “inactive”.

Question: For CN(C(=O)CNC(=O)OCc1ccccc1)c1ccc(Br)cc1C(=O)c1ccccc1Cl, which Potency is on record?
Answer: The Potency was inconclusive: 20 µM [inhibitor, partial curve].

Question: With CN(C)[C@@H]1C(=O)C(C(N)=O)=C(O)[C@@]2(O)C(=O)C3=C(O)c4c(O)cccc4[C@@](C)(O)[C@H]3[C@H](O)[C@@H]12 as the molecule, how does the Potency read?
Answer: Its Potency is active: 28.2 µM.

Question: How did the Potency turn out when C=CCNC(=O)c1c(N)n(Cc2ccco2)c2nc3ccccc3nc12 was run?
Answer: Its Potency is inconclusive: 28.2 µM [inhibitor, partial curve].

Question: CCN1C(=O)/C(=C/c2ccc3c(c2)CCN3CCCCl)C(=O)NC1=S was tested. Which Potency did it give?
Answer: Its Potency is active: 0.199 µM.

Question: Which Potency does the source give for Cc1cccc(N2C(=O)NC(=O)/C(=C/c3ccc(-c4ccc(C(=O)O)c(Cl)c4)o3)C2=O)c1 here?
Answer: The Potency was “inactive”.

Question: Which Potency does the source give for O=C(O)C1Sc2[nH]c(=O)sc2C2c3cc(Cl)ccc3OC(=O)C12 (stereo not given) here?
Answer: The Potency was active: 12.6 µM.

Question: CC(C)(O)C1C2OC(=O)C1[C@]1(O)C[C@H]3O[C@]34C(=O)O[C@H]2[C@]14C (stereo not given in full) (tested in a mixture with another compound) was tested. Which Potency did it give?
Answer: The Potency was “inactive”.

Question: With CCCn1c(C)c(C(=O)c2cccc3ccccc23)c2ccccc21 as the molecule, how does the Potency read?
Answer: Its Potency is inconclusive: 12.6 µM [inhibitor, partial curve].

Question: For CNc1ccc2oc(C[C@@H]3OC4(CC[C@@H]3C)O[C@H]([C@@H](C)C(=O)c3ccc[nH]3)[C@H](C)C[C@H]4C)nc2c1C(=O)O (stereo not given in full), which Potency is on record?
Answer: The Potency was inconclusive: 22.4 µM [inhibitor, partial curve] and inconclusive: 8.91 µM [inhibitor, full curve].

Question: COC(=O)c1c(N)n(Cc2ccc(OC)cc2)c2nc3ccccc3nc12 was tested. Which Potency did it give?
Answer: Its Potency is inconclusive: 28.2 µM [inhibitor, partial curve].

Question: How did the Potency turn out when O=c1c2ccccc2nc(/C=C/c2ccc3c(c2)OCO3)n1-c1cccc(O)c1 was run?
Answer: The Potency was inconclusive: 39.8 µM [inhibitor, single point].

Question: Which Potency does the source give for CCCCn1c(=O)c(C(=O)NCc2ccco2)c(O)c2ccccc21 here?
Answer: Its Potency is inconclusive: 2.82 µM [inhibitor, full curve].

Question: CCC1/C=C/C=CCC(C)C(O)[C@@](C)(O)C(=O)C(C)C(O)C(C)C(=O)C(C)C(O)C(C)C=CC(=O)O[C@H]2C(C)C(CC1)O[C@]1(CCC(C)C(CC(C)O)O1)C2C (stereo not given in full) was tested. Which Potency did it give?
Answer: Its Potency is “inactive”.

Question: With CCN1CCN(S(=O)(=O)c2ccc(Cl)nc2)CC1 as the molecule, how does the Potency read?
Answer: The Potency was active: 25.1 µM.

Question: Which Potency does the source give for COc1ccccc1-n1c(-c2ccoc2)nc2ccccc2c1=O here?
Answer: Its Potency is inconclusive: 20 µM [inhibitor, single point].
